Reference: PubChem BioAssay AID651820 (National Center for Advancing Translational Sciences (NCATS), 2012)
Where “and” joins values, the source holds several entries; their conditions need not be identical. Equal values may be shown once. Among all 340,000 compounds or so, about 12,000 (3.5%) were called active. Inconclusive results, whose numbers are uncertain, are shown with a selection of clear calls. Calls come from the whole dose curve; as a rule, active = well fitted inhibition curve with a large enough effect; inconclusive = small, poorly fitted or top-dose-only effect, or another doubt; inactive = no such curve, though single readings can be large or run the other way. Potencies of inconclusive entries are doubtful fits and often do not repeat.

assay: qHTS Assay for Inhibitors of Hepatitis C Virus (HCV); details: Huh7.5.1 HCVcc-Cre (HCVcc is cell-culture hepatitis C virus) infection, luciferase reporter, 44 h; activity change, negative = inhibition: at 41.8 µM (top of the series) unless noted
Method in brief: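 After 44 h co-culture of compound, cells and HCVcc-Cre (~0.5 moi), substrate is added for 15 min at room temperature and luciferase measured over 15 sec. Cells were seeded at 1,000/well and pre-cultured 4 h.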
% is set by controls: 0 for no effect and ±100 for the full control effect; potency is the fitted concentration of half-maximal effect; tags give direction and shape of the fitted curve.

Row | SMILES | Potency | activity change, negative = inhibition
1 | C=CCNC(=O)c1c(CSc2ccc(Cl)cc2)noc1C(=O)NCc1ccccc1 | inconclusive: 3.55 µM [inhibitor, partial curve] | 
2 | COC(=O)c1ccc(/C=N\NC(=O)c2ccc(C)cc2Cl)cc1 | inconclusive: 0.794 µM [inhibitor, full curve] | 
3 | CCOC(=O)C1=C(Nc2ccccc2)CC(C)(O)C(C(=O)OCC)C1c1ccc(Br)cc1 (stereo not drawn) | inconclusive: 31.6 µM [inhibitor, single point] | 
4 | CCC(C)n1ncn(-c2ccc(N3CCN(c4ccc(OCC5COC(Cn6cncn6)(c6ccc(Cl)cc6Cl)O5)cc4)CC3)cc2)c1=O (stereo not drawn) | inconclusive: 1.78 µM [inhibitor, partial curve] | 
5 | Cc1cc(N=NC(=O)c2ccccc2O)c2ccccc2c1O | inconclusive: 11.2 µM [inhibitor, single point] | 
6 | C/C(Cl)=C/Cc1c(C)[nH]c2ccc(C)cc2c1=O |  | inactive: -16.7%
7 | COc1cccc(N2CCc3c(C)nc4ccc(Cl)cc4c32)c1 | inconclusive: 11.2 µM [inhibitor, partial curve] | 
8 | NNC(=O)C1CC1c1ccc(Cl)cc1 (stereo not drawn) |  | inactive: -14.4%
9 | COc1ccc(-c2cc(-c3nnc(COC(=O)C4CC4)o3)c3ccccc3n2)cc1OC | inconclusive: 31.6 µM [inhibitor, single point] | 
10 | COc1ccccc1-c1ccc(NC2CCCCC2)nn1 | active: 22.4 µM | 
11 | COc1ccc(C(=O)N2CCN(c3nc(C4CC4)nc4sc(C)c(C)c34)CC2)cc1 | inconclusive: 31.6 µM [inhibitor, single point] | 
12 | Cc1ccc(NC(=O)c2nn(C34CC5CC(CC(C5)C3)C4)cc2[N+](=O)[O-])cc1 | inconclusive: 22.4 µM [inhibitor, partial curve, poor fit] | 
13 | CN(CC(=O)N1CCN(c2ccc(F)cc2)CC1)S(=O)(=O)c1ccc(F)cc1 | inactive | 
14 | Cc1n[nH]c(C)c1S(=O)(=O)N1CCCC(C(=O)NCc2ccc(F)cc2)C1 (stereo not drawn) | inconclusive: 15.8 µM [inhibitor, single point] | 
15 | COc1ccc(CN2CCCCC2C(=O)Nc2ccc(OC)c(OCC(C)C)c2)cc1OC (stereo not drawn) | inconclusive: 4.47 µM [inhibitor, full curve] and inconclusive: 14.1 µM [inhibitor, single point] | 
16 | CCOC(=O)C(CC(C)C)CP(=O)(O)CNC(=O)OCc1ccccc1 (stereo not drawn) |  | inactive: 11.2%
17 | Cc1ccnc(NCc2ccccc2O)c1 |  | inactive: 1.72%
18 | Cc1ccc(CNC(=O)CCCn2nc(C)c3c(C)n(-c4ccccc4)nc3c2=O)cc1 | inconclusive: 3.55 µM [inhibitor, full curve, poor fit] | 
19 | NS(=O)(=O)c1ccc(CNC(=O)c2ccc(NS(=O)(=O)c3cccs3)cc2)cc1 |  | inactive: 7.25%
20 | Cc1cccc(N2CCN(C(=O)c3cc(S(=O)(=O)N4CCCC4)cn3C)CC2)c1C | inconclusive: 5.01 µM [inhibitor, full curve] | 
21 | CCN1CCc2nc3sc(C(=O)N4CCc5ccccc5C4)c(N)c3cc2C1 | inconclusive: 11.2 µM [inhibitor, single point] | 
22 | CN(C(=O)COC(=O)c1c2c(nc3ccccc13)/C(=C/c1cccc([N+](=O)[O-])c1)CCC2)C1CCS(=O)(=O)C1 (stereo not drawn) | active: 1.78 µM | 
23 | CC(=O)c1c(C)[nH]c(C(=O)OCc2cc(=O)n3cc(Br)ccc3n2)c1C |  | inactive: -21.6%

Row | SMILES | Potency | activity change, negative = inhibition
24 | CCN(CC)S(=O)(=O)c1ccc(NC(=O)c2ccc(N3CCCC3=O)cc2)cc1 | inconclusive: 1.26 µM [inhibitor, partial curve, poor fit] | 
25 | Cc1ccccc1-n1ncc2c([N+](=O)[O-])cc([N+](=O)[O-])cc21 | active: 7.94 µM | 
26 | Cc1c(Cl)cccc1N=c1c([N+](=O)[O-])nn(-c2ccccc2)n1O | inconclusive: 8.91 µM [inhibitor, partial curve] | 
27 | CCc1ccc(NC(=O)C2=CC(c3ccc(OC)c(OC)c3)=NS(=O)(=O)N2C)cc1 | active: 5.62 µM | 
28 | CCSc1nnc(NC(=O)CC(C)C)s1 |  | inactive: -0.379%
29 | CCn1ncc(C2=NOC(C(=O)Nc3ccccc3C(=O)OC)C2)c1C (stereo not drawn) | inconclusive: 3.16 µM [inhibitor, single point] | 
30 | CC(=O)N1CCN(Cc2nc3cc(NC(=O)c4cccc(Br)c4)ccc3n2C)CC1 | active: 17.8 µM | 
31 | CCOP(=O)(OCC)C(NC(=O)c1ccc(Cl)cc1)=C(Cl)Cl | inconclusive: 31.6 µM [inhibitor, single point] | 
32 | O=C(COC(=O)c1ccccc1NCCO)NNC(=O)c1cccs1 | inconclusive: 0.562 µM [inhibitor, full curve] | 
33 | c1ccn2cc(CSc3nnc4ccccn34)nc2c1 |  | inactive: 8.43%
34 | COc1ccc(-c2cc3ccccc3oc2=O)cc1NC(=O)c1ccc(Br)o1 | inactive | 
35 | O=C(Nc1cccc(-c2nc3ccccc3c(=O)o2)c1)c1ccccc1 |  | inactive: 1.35%
36 | O=c1c2c3c(sc2n(CCN2CCCC2)c(=O)n1Cc1ccccc1)CCCCC3 | inconclusive: 10 µM [inhibitor, partial curve] | 
37 | N#Cc1ncc(N=Cc2ccc(N(CCCl)CCCl)cc2)s1 | inconclusive: 12.6 µM [inhibitor, partial curve] | 
38 | Cc1ccc(NC(=O)c2cc(S(=O)(=O)N3CCc4ccccc43)cn2C)cc1 | inconclusive: 12.6 µM [inhibitor, single point] | 
39 | C[C@@H](C[C@@H](O)[C@H](O)C(C)(C)O)[C@@H]1CC[C@]2(C)C3=CC[C@H]4C(C)(C)C(=O)CC[C@]4(C)[C@H]3CC[C@@]12C |  | inactive: -12.3%
40 | O=C(C1CCN(S(=O)(=O)N2CCC3(CC2)OCCO3)CC1)N1CCN(Cc2ccccc2)CC1 |  | inactive: 4.24%
41 | Cc1ccc(C2(c3ccc(C)cc3)CC2C(=O)Nc2ccc([N+](=O)[O-])cc2O)cc1 (stereo not drawn) | active: 3.55 µM | 
42 | Brc1ccccc1/C=N/Nc1ccc2ccccc2n1 | inconclusive: 31.6 µM [inhibitor, single point] | 
43 | COc1cc(NC(=O)CCc2ccccc2)nc(OC)n1 | inconclusive: 0.631 µM [inhibitor, partial curve, poor fit] | 
44 | CCOc1ncnc2c1[nH]c1ccccc12 | active: 10 µM | 
45 | CCCn1c(SCC(=O)Nc2sc(C)c(C)c2C#N)nnc1C(C)C |  | inactive: -11.9%
46 | Cc1ccccc1OCC(=O)Nc1cccc(N(C)S(C)(=O)=O)c1 | inconclusive: 11.2 µM [inhibitor, single point] | 

Row | SMILES | Potency | activity change, negative = inhibition
47 | COc1ccccc1-c1c(C(F)(F)F)oc2cc(OC(=O)c3cccc([N+](=O)[O-])c3C)ccc2c1=O |  | inactive: -16.2%
48 | CC(C)C(=O)NC(=O)[C@@H]1CCCN1C(=O)/C=C/c1ccccc1 | inconclusive: 0.501 µM [inhibitor, full curve, poor fit] | 
49 | CN1C=CC(=CC=C2C=CC(=O)C=C2)C=C1 | inconclusive: 2.51 µM [inhibitor, full curve] | 
50 | COc1cc(CN2CCN(Cc3ccc(SC)cc3)CC2)cc(OC)c1O | inconclusive: 0.501 µM [inhibitor, full curve, poor fit] | 
51 | CCc1nonc1NC(=O)c1oc2ccc(C)cc2c1C |  | inactive: -3.76%
52 | Cc1[nH]c(C)c(S(=O)(=O)N2CCN(c3ccc(Cl)cc3)CC2)c1C(=O)N1CCCC1 |  | inactive: 10.5%
53 | CC(C)c1ccc(NC(=O)C(c2ccccc2)N(C)C(=O)CCc2c[nH]c3ccccc23)cc1 (stereo not drawn) | inconclusive: 31.6 µM [inhibitor, single point] | 
54 | O=C(c1ccc2c(=O)n(C3CCCC3)c(=S)[nH]c2c1)N1CCc2ccccc21 | inconclusive: 11.2 µM [inhibitor, partial curve] | 
55 | CCOc1cc(NC(=O)c2ccccn2)c(OCC)cc1NC(=O)c1ccc(Cl)cc1 |  | inactive: -13%
56 | O=C(OCc1ccccc1)c1cccc(-c2nnn(Cc3ccccc3)n2)c1 | inconclusive: 31.6 µM [inhibitor, single point] | 
57 | COc1ccc(C(C)=O)cc1CC(=O)NC1CCCCCC1 | inconclusive: 31.6 µM [inhibitor, single point] | 
58 | CCCCc1ccc(S(=O)(=O)N/N=C(/C)c2ccncc2)cc1 | inconclusive: 22.4 µM [inhibitor, single point] | 
59 | Cc1ccnc(Nc2nc(-c3c(C)nc4sccn34)cs2)c1 | active: 12.6 µM | 
60 | COc1ccc(CSCC(=O)N/N=C/c2ccc(OCC(=O)NCc3ccco3)cc2)cc1 | inconclusive: 31.6 µM [inhibitor, partial curve] | 
61 | Cn1cccc1Cc1nnc(SCC(=O)Nc2cccc(F)c2)n1-c1ccc(F)cc1 | inconclusive: 7.08 µM [inhibitor, partial curve] | 
62 | CCOc1ccc(N2Nc3n[nH]c(N)c3N2)cc1 | inconclusive: 31.6 µM [inhibitor, single point] | 
63 | Cc1ccc(-c2nnn(CC(=O)N(CC(=O)NCC3CCCO3)c3ccccc3)n2)o1 (stereo not drawn) | inconclusive: 5.62 µM [inhibitor, single point] | 
64 | CC(OC(=O)CSc1ccc([N+](=O)[O-])cc1)C(=O)NC1CC1 (stereo not drawn) |  | inactive: 4.72%
65 | CCN(CCCl)c1cc(CN(C)C)cc(NC(=O)c2ccc(C(=O)Nc3cc(CN(C)C)cc(N(CC)CCCl)c3)cc2)c1 | active: 1.41 µM | 
66 | CC(C)CN(C(=O)COC(=O)c1ccc2c(c1)OCO2)c1c(N)n(Cc2ccccc2)c(=O)[nH]c1=O |  | inactive: 5.78%
67 | COc1ccc(C2/C=C\CN(C(=O)C3CCCCC3)CC(=O)N2Cc2ccc(F)cc2)cc1 (stereo not drawn) | inconclusive: 3.55 µM [inhibitor, single point] | 
68 | CCCCOc1ccc(/C=C/C(=O)N(CC)CC(=O)Nc2ccc3c(c2)OCCO3)cc1OC | inconclusive: 1.26 µM [inhibitor, full curve] | 
